This is an account of results in the RNAGym collection of RNA variant scans (doi:10.7554/elife.90254).

To fix the notation:
B1: LINE1-mini (parent)
chain: GGCAGAGCUCAACACAGCGUGGCAAAGUGGCUGUGGCUAGACUGCC

The source gives no read counts; variants with many changes may rest on few reads.

The variants in the data set derive from B1. The data set is described as follows: self-cleavage, relative activity (ratio to wild type); higher = more cleavage; in vitro, sequencing; the parent is a self-cleaving ribozyme.
For GGCACAGCUCAACACAGCGUGGCAAAGUGGCCUUGGCUAGACUGCC, the self-cleavage was 0.01.

Consider GGCAGUGCUCAACACAGCGUGGCAAAGUGUCCGUGGCUAGACCGCC, for which the self-cleavage came out at 0.04.

As for GGCAAGGCUCAACACAGCGUGGCUAAGUGGCUGUGGCUUGACUGCC, the self-cleavage worked out at 0.04.

With GGCAGAGCUGAACACAGCGUGGGAAAGUGUCUGUGGCUAGACUGAC, the self-cleavage is 0.03.

On to GACAGAGCUCCACACAGAGUGGCAAAGUGGCUGUGGCCAGACUGCC, for which the self-cleavage stood at 0.02.

GGCAGAGCCCAACGCAGCGUGGCAAAGUGGAUGUGGCUAGACUGCC: the self-cleavage was 0.

On to GGCAGAGCUCAACAGAGCGUGGCAAAGUAGCUGUGGCUAGACUACC, for which the self-cleavage stood at 0.16.

For the variant GGCAGAGCUCAACACAGCGUGACAAAUUGGCUGUGACUAGACUGCC, the self-cleavage worked out at 0.28.

For GGGAGAGCUCAACACAGCGUGGCAAAUUCGCUGUGGCUAGAUUGUC, the self-cleavage came out at 0.01.

Consider GGCAGAACUCAACACAGCUUGGCAAAGUGGCUGUGGCUGGACUGCC, for which the self-cleavage stood at 0.07.

On to GGCAGAGCUCAACACAGCGUGGCAAAGUGGCUGUCGCUGGCCUGCC, for which the self-cleavage worked out at 0.04.

In the case of GGCAGAGCUCAACACAGCGUGCCAUAGUGACUGUGGCUAGCCUGCU, the self-cleavage was 0.01.

With GGCAGAGUUCAACACAGCGUGGCAAAGUUGCUGUGGCUUGACUGCG, the self-cleavage was found to be 0.06.

Turning to GGCACUGCUCAACACAGCGUGGCAAAGUGGCUGUGGCUAGACCGCC, the self-cleavage was found to be 0.06.

Take GCCAGAGAUCAACAUAGCGUGGCAAAGUGGCUGUGGCUAGACUGCC: the self-cleavage was found to be 0.12.

For GGCAGAGCUCGACACAGCGUGCCCAAGGGGCUGUGGCUAGACUGCC, the self-cleavage is 0.

GUAAGUGCUCAACACAGCGUGGCAAAGUGGCUGUGGCUAGAUUGCC: the self-cleavage was 0.14.

In the case of GGGAGAGCUCAACACCGCGUGGUAAAGUGGCUAUGGCUAGACUGCC, the self-cleavage is 0.03.

Take GGCAGAGCACAACACAGCGCGGCAAAGUGGAUGUGGCUAGACUGCC: the self-cleavage came to 0.02.

GGCAGAGCUCAACACAGCGAGGCAAAGCGCCUGUGGCUCGACUGCC: the self-cleavage was 0.05.

Consider GGCAGAGUUCAACACAGCGUAACAAAGUGGCCGUGGCUAGACUGCC, for which the self-cleavage was 0.04.

With GCCAAAGCUCAACACAGCGUGGCAAAGUGGCUGUAGCUAGAGUGCC, the self-cleavage amounted to 0.03.

Consider GGUAGAGCUCAACACAGCGUGGCAAAGUGGGUGGGGCUAGACUACC, for which the self-cleavage is 0.

Consider GCCAGAGCUCCACACAGCGUGGCAAAGUGGCCGUGGCUAGACUGCC, for which the self-cleavage came to 0.02.

On to GGCAGCGCUCAACACAGUGUGGCAAAAUGGCUGUGGCUAGACAGCC, for which the self-cleavage stood at 0.02.

As for GGCAGAGCUUAACACAGCGUGGCAAAGUAGCUGUGGCUAGACUACC, the self-cleavage is 0.12.

Consider GGCAGAGCUUAACACAGCAUGGCAAAGUGGCUGUGGCUUGAGUGCC, for which the self-cleavage worked out at 0.04.

Regarding GGCAGAGCUCAACACACAGUGACAAAGUGGCUGUGGCUAGACUGCC, the self-cleavage came to 0.15.

Turning to GGCAGACCUCAACACAGUGUGGCAAAGUGGUUGCGGCUAGACUGCC, the self-cleavage came to 0.02.

In the case of GGCAGAGCUCAACACGGCGUGGCAUAGUGGCUGUGGCUAGACUGCA, the self-cleavage worked out at 0.12.

Consider GUCAGAGCUCCACACAGCGUGGCAAAGUGGCUGUGGCUAGACAGCC, for which the self-cleavage is 0.15.

Consider GGCAGAGCUCAACAGAGAGUGGCAAAGUGGCCGUGGCUAGACUGCC, for which the self-cleavage came to 0.02.

As to GGGAGAGCUCAACACAAUAUGGCAAAGUGGAUGUGGCUACACUGCC, the self-cleavage came out at 0.02.

For the variant GGCAGAGCUAAACACAGCGUGCGAAAGUGGUAGUGGCGAGACUGCC, the self-cleavage worked out at 0.02.

As for GGCAGAGCUCAGCAAAGCGUGGCAAAGUGGCCGUGGCUAGACUGCC, the self-cleavage amounted to 0.03.

As to GGCAGAGCUCAACACAUCGUGGCAAAGUGGCUGUGGCUAUACUUCC, the self-cleavage is 0.02.

For GGCAGAGCUCAACUGAGCGUGUCAAAGUGGCUGUGGCUAGACUGCC, the self-cleavage is 0.

For GGCAGAGCUCGACACACCGUGGCAAAGUGGCUGCGGAUAGACUGCC, the self-cleavage came out at 0.01.

Consider GUCAGAGCUCAACCCAGCGUGGCGAAGGAGCUGUGGCUAGACUGCC, for which the self-cleavage turned out to be 0.03.

On to GGCAGAGCUCAACACAGCGUGGCAAAGUUGCUGUGGCUAGACUGAU, for which the self-cleavage stood at 0.55.

In the case of GGCAGAGCUUAACACAGCGUGGGUAAGUGGCUGUGGCUAGACUGCC, the self-cleavage is 0.07.

GUCAGAGCUCAAGACAGCGUGGCAAAGUGCCUGUGGCUAGACUGCC: the self-cleavage worked out at 0.04.

On to GGAAGAGCUGCACACAGCGUGGCAAACUGGCUGUGGCUAGACUGCC, for which the self-cleavage is 0.03.

For GGCAGAGCUCAACACAGCGUAGCAAAGUGGCUGUUGCUAGACUUAC, the self-cleavage is 0.15.

For GGCAGAGCUCCACACAGCGUGUUAAAGUGGCUGUGGCAAUACUGCU, the self-cleavage stood at 0.

On to GGCAGAGCUCAACAGAGCGUGGCAAAGGCGCUGUGGCUAGACUGCC, for which the self-cleavage is 0.41.

In the case of GGCAGAGCUCAACACAGGGUGGCAAAGUGGCUGUGUAAAGACUGCC, the self-cleavage was determined as 0.

Regarding GGCAGAGCUCAACACAGCGUGGCGGAGUGGGUGUGGCUAGACUACC, the self-cleavage was 0.03.

For GGCCGAGCUCAACACAGCGUGGCAAAGUGGCUGUGACAAGACUGCG, the self-cleavage turned out to be 0.45.

As to GGCAGAGCUCAGCACAGCGUGGCAAAGUGGCUGUGGCCAGACUGUC, the self-cleavage was found to be 0.07.

With GGCAGAGCUCAAGACAGCGUGGCCAAUUGGCUGUGGCUAGACUGCC, the self-cleavage was determined as 0.07.

On to GGCAUAGCUCAACACAACGUGGCAAAGUGGUAGAGGCUAGACUGCC, for which the self-cleavage is 0.03.

On to GGCAGAGCUCAACACCCCGUGGCAAACUGGCUGUGGCUAGACUGCC, for which the self-cleavage is 0.05.

GACAGACCUCAACACAGCGUGGCAACGUGGCUGUCGCUAGACUGCU: the self-cleavage was found to be 0.21.

For GGCAGAGCUCAAAACAGCGUGGCAAAGUGCCAGUGGCUAGACUGCC, the self-cleavage is 0.04.

Turning to GCCAGAGAUCACCACAGCGUGGCAAAGUGGCUGUGGCUACACUGCC, the self-cleavage turned out to be 0.02.
